Measured values: PubChem BioAssay AID588342 (National Center for Advancing Translational Sciences (NCATS), 2011)
Among all 360,000 compounds or so, about 25,000 (6.9%) were called active. The inconclusive results got no clear call from the source; some entries with a clear call stand among them for comparison. Calls come from the whole dose curve; as a rule, active = well fitted inhibition curve with a large enough effect; inconclusive = small, poorly fitted or top-dose-only effect; inactive = flat fitted curve, though single readings scatter. A potency beside an inconclusive call is a rough fit, not a confirmed value.

What follows are compounds tested against Luciferin 4-monooxygenase (Photinus pyralis) (UniProt P08659) (assay: qHTS profiling assay for firefly luciferase inhibitor/activator using purifed enzyme and Km concentrations of substrates (counterscreen for miR-21 project)). Settings: purified FLuc, luminescence inhibition; series mostly up to 57.5 µM.
Chain of UniProt P08659 (P08659 whole entry, looked up): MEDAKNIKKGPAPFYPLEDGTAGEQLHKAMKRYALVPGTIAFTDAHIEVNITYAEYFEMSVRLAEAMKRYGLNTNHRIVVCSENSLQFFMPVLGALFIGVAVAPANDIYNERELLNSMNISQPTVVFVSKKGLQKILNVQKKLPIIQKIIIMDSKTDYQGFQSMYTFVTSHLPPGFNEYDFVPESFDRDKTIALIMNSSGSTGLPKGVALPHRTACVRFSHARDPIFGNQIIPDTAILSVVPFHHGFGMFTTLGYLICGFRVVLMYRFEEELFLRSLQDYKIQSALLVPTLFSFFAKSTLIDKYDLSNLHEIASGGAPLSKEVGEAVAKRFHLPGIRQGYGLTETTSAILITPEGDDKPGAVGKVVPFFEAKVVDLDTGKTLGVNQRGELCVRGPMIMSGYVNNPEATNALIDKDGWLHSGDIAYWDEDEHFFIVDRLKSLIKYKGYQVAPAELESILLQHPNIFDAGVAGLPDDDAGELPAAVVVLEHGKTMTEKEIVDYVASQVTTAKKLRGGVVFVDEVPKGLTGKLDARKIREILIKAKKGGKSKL
How it was run: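 Biochemical qHTS of compounds, final roughly 60 µM downward over six points, against 10 nM purified firefly luciferase using Km concentrations of substrates (10 uM D-luciferin, 10 uM ATP) in Tris acetate pH 7.5 buffer; luminescence output.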
Note: nearly all actives have a fitted effect of over 55% in size.
Potency is the fitted concentration of half-maximal effect; tags give direction and shape of the fitted curve.

| SMILES | Potency |
| --- | --- |
| Cc1ccc(-c2nc3cc(NC(=O)C(C)C)ccc3o2)cc1C | active: 0.269 µM |
| COc1cc(Cl)ccc1OCc1cc(C(=O)N2CCCCCCC2)no1 | inconclusive: 37.9 µM [inhibitor, single point] |
| COc1ccc(C2=C(C)C(N3CCC(C(=O)NCc4ccc(C)o4)CC3)=NS2(=O)=O)cc1 | inactive |
| Cc1ccc(Sc2ccc(N3CCCC(C(=O)Nc4ccc(Br)cc4)C3)nn2)cc1 (configuration not stated) | inconclusive: 6.75 µM [inhibitor, partial curve, poor fit] |
| CCc1c(C(=O)N/N=C/c2cn[nH]c2-c2ccc(F)cc2)csc1C | inconclusive: 26.9 µM [inhibitor, single point] |
| Cc1ccc(C(=O)CN2C(=O)NC3(CCc4ccccc43)C2=O)c(C)c1 (configuration not stated) | inconclusive: 23.9 µM [inhibitor, single point] |
| CSc1ccccc1NC(=O)CSc1nnc(Cc2ccccc2)o1 | inactive |
| COc1ccc(OC)c2sc(N(Cc3cccnc3)C(C)=O)nc12 | inactive |
| Cc1ccc(C)c(OCc2cc(C(=O)N3CC[C@@H]4CCCC[C@H]4C3)no2)c1 | inconclusive: 30.1 µM [inhibitor, single point] |
| O=C(CCC1CCCN(C(=O)CCC(F)(F)F)C1)NCc1ccc(F)c(F)c1 (configuration not stated) | inactive |
| Cc1cccc(NC(=O)c2cc(NC(=O)c3ccco3)ccc2Cl)n1 | inconclusive: 21.3 µM [inhibitor, partial curve] |
| C/C(=N\NC(=O)c1ccn(C)n1)c1cccc(NC(=O)c2ccc(C)s2)c1 | active: 3.01 µM |
| CCOC(=O)c1c(NC(=O)CCN2CCOCC2)sc(C)c1-c1ccccc1 | inactive |
| Cc1cccc(NC(=O)Nc2ccc(OCc3ccccc3)cc2)n1 | inactive |
| CCc1ccc(S(=O)(=O)/N=C2\C=C(NS(=O)(=O)c3ccccc3)C(=O)c3ccccc32)cc1 | active: 15.1 µM |
| Cc1cc(C)c(C(=O)COC(=O)c2cccnc2Cl)c(C)c1 | active: 16.9 µM |
| O=C(CSc1ccccc1)Nc1cccc(S(=O)(=O)N2CCCC2)c1 | inconclusive: 21.3 µM [inhibitor, partial curve, poor fit] |
| O=C(Nc1ccc(OCc2cc(=O)n3c4c(sc3n2)CCCC4)cc1)c1cccc(F)c1 | inactive |
| O=C(Nc1ccc2c(c1)CCC2)c1ccc(F)cc1 | active: 1.07 µM |
| O=C(CCn1cnc2onc(-c3ccc(F)cc3)c2c1=O)Nc1ccc(F)c(Cl)c1 | inactive |
| O=C(NC1=NCCS1)c1sc2ccccc2c1Cl | active: 2.13 µM |
| CCOC(=O)C1CCCN(C(=S)Nc2cc(C)cc(C)c2)C1 (configuration not stated) | inactive |
| CCCCN=C1CC(C)(C)CC(=O)/C1=C(/O)CCC | inactive |
| CC(=O)N1CCCc2cc(S(=O)(=O)CCC(=O)N3CCN(c4cccc(C)c4)C(C)C3)ccc21 (configuration not stated) | inactive |

| SMILES | Potency |
| --- | --- |
| O=C(Nc1cccnc1Cl)c1cc(-c2cccc(O)c2)on1 | inconclusive: 1.9 µM [inhibitor, partial curve, poor fit] |
| Oc1ccc(C=NCC2COc3ccccc3O2)cc1 (configuration not stated) | inconclusive: 37.9 µM [inhibitor, partial curve, poor fit] |
| C=CCc1ccccc1OCCSc1nc(-c2cccs2)nc2cc(=O)[nH]n12 | inconclusive: 13.5 µM [inhibitor, partial curve] |
| CC1(C)Cc2c(sc(NC(=O)C(=O)NCCCN3CCOCC3)c2C#N)CO1 | inconclusive: 37.9 µM [inhibitor, partial curve, poor fit] |
| COc1ccc(S(=O)(=O)N2CCN(C(=O)c3ccc(C)o3)CC2)cc1 | inactive |
| C=CCNC(=O)c1onc(CSc2cccc(C)c2)c1C(=O)O | inconclusive: 15.1 µM [inhibitor, partial curve, poor fit] |
| CC(=O)Cc1nsc(NC(=O)c2ccc(COc3ccccc3Cl)o2)n1 | inconclusive: 23.9 µM [inhibitor, single point] |
| Cn1c(CNc2ccc(Br)cc2)nc2ccccc21 | active: 2.69 µM |
| OCc1cc(Br)ccc1OCc1nc2ccccc2s1 | active: 5.36 µM |
| FC(F)(F)c1cnc(-c2cnc(-c3ccncc3)nc2)c(Cl)c1 | inconclusive: 26.9 µM [inhibitor, single point] |
| CC(c1nnc(SCC(=O)Nc2cc([N+](=O)[O-])ccc2F)n1Cc1ccccc1)N(C)C (configuration not stated) | inactive |
| CCC(CC)C(=O)Nc1ccc(Cl)c(Cl)c1 | inconclusive: 23.9 µM [inhibitor, partial curve, poor fit] |
| N#CC1=C(N)NC(SCc2ccc(Br)cc2)=C(C#N)C12CCCCC2 | inconclusive: 5.36 µM [inhibitor, single point] |
| COc1ccc(CNc2ncccc2[N+](=O)[O-])cc1 | inconclusive: 19 µM [inhibitor, partial curve] |
| COc1ccc2c(c1)c1ccc3c(c1n2C)C(=O)C=CC3=O | inconclusive: 1.9 µM [inhibitor, partial curve, poor fit] |
| COc1ccc(Nc2nc3ccccc3nc2NS(=O)(=O)c2ccc(C)cc2)c(OC)c1 | inconclusive: 10.7 µM [inhibitor, partial curve, poor fit] |
| CCOC(=O)c1sc(NC(=O)COC(=O)c2ccco2)nc1C | inconclusive: 21.3 µM [inhibitor, partial curve, poor fit] |
| Clc1ccc(Cl)c(OCc2cc(-c3ccccc3Cl)on2)c1 | active: 10.7 µM |
| CCN(CC)c1cc(C)c2cc(NC(=O)c3cccc(OC)c3OC)ccc2n1 | inconclusive: 30.1 µM [inhibitor, single point] |
| Cc1cc(/C=C2/C(=N)N3C(c4ccccc4)=CSC3=NC2=O)c(C)n1-c1ccccc1 | active: 2.39 µM |
| COC(=O)C1=C(C(=O)OC)C(c2cc([N+](=O)[O-])ccc2O)c2sc(=O)[nH]c2S1 (configuration not stated) | inconclusive: 37.9 µM [inhibitor, partial curve, poor fit] |
| O=C(COc1ccc(F)cc1)Nc1nnc(C2CC2)s1 | inconclusive: 37.9 µM [inhibitor, partial curve, poor fit] |
| CCc1ccc(-n2nnc(-c3nsc(NC(=O)c4ccccc4Cl)n3)c2C)cc1 | inconclusive: 7.57 µM [inhibitor, partial curve, poor fit] |
